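Interpolation was linear, between the two tested concentrations surrounding the appropriate level; five concentrations were tested over 48 hours in 96-well plates. TGI: concentration producing complete growth inhibition.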
Tested on: NCI-H322M lung
Experiment: DTP human tumour cell line panel, 48 h

`CC(C1=CC=C2[C@@H]3CCC4CC(N(C)C)CC[C@]4(C)C3CC[C@]12C)N(C)C=O` (stereo partly drawn) and `NC(Cc1c[nH]c2ccccc12)P(=O)(O)O` (stereo not drawn) cannot be ordered by TGI: > 100 µM for the first, > 100 µM for the second.

`O=C1OC(=O)C2=C1C(c1cccs1)C=C(c1cccnc1)N2c1ccncc1` (stereo not drawn) gave a TGI of 31.6 µM.
